Experimental data taken from PMC4484057.
Results are given in words; binding and its absence hold for the method and conditions named. Binding seen in cells or lysates may run through a third protein. Some results given as binding are weak or reduced against the parent protein; the word gives no strength.

By UniProt entry, the sequences of proteins in these tests, tags left out. Where a name states a change or a piece, a line headed by the entry shows the natural chain unless it says otherwise. Chains listed by the source or under a name are the forms on record and can include a tag or linker.
UniProt P08753: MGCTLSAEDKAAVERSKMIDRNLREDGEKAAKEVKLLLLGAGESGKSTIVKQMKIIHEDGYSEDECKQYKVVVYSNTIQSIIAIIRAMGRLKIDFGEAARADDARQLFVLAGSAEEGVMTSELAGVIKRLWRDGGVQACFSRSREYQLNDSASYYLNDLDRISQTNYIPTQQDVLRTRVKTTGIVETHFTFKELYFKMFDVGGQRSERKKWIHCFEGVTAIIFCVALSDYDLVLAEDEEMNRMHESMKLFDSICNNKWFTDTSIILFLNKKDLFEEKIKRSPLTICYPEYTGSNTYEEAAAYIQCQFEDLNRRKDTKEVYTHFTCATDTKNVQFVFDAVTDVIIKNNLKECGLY
myc-Daple full-length F1675A (FA) (Q9P219-1, form named): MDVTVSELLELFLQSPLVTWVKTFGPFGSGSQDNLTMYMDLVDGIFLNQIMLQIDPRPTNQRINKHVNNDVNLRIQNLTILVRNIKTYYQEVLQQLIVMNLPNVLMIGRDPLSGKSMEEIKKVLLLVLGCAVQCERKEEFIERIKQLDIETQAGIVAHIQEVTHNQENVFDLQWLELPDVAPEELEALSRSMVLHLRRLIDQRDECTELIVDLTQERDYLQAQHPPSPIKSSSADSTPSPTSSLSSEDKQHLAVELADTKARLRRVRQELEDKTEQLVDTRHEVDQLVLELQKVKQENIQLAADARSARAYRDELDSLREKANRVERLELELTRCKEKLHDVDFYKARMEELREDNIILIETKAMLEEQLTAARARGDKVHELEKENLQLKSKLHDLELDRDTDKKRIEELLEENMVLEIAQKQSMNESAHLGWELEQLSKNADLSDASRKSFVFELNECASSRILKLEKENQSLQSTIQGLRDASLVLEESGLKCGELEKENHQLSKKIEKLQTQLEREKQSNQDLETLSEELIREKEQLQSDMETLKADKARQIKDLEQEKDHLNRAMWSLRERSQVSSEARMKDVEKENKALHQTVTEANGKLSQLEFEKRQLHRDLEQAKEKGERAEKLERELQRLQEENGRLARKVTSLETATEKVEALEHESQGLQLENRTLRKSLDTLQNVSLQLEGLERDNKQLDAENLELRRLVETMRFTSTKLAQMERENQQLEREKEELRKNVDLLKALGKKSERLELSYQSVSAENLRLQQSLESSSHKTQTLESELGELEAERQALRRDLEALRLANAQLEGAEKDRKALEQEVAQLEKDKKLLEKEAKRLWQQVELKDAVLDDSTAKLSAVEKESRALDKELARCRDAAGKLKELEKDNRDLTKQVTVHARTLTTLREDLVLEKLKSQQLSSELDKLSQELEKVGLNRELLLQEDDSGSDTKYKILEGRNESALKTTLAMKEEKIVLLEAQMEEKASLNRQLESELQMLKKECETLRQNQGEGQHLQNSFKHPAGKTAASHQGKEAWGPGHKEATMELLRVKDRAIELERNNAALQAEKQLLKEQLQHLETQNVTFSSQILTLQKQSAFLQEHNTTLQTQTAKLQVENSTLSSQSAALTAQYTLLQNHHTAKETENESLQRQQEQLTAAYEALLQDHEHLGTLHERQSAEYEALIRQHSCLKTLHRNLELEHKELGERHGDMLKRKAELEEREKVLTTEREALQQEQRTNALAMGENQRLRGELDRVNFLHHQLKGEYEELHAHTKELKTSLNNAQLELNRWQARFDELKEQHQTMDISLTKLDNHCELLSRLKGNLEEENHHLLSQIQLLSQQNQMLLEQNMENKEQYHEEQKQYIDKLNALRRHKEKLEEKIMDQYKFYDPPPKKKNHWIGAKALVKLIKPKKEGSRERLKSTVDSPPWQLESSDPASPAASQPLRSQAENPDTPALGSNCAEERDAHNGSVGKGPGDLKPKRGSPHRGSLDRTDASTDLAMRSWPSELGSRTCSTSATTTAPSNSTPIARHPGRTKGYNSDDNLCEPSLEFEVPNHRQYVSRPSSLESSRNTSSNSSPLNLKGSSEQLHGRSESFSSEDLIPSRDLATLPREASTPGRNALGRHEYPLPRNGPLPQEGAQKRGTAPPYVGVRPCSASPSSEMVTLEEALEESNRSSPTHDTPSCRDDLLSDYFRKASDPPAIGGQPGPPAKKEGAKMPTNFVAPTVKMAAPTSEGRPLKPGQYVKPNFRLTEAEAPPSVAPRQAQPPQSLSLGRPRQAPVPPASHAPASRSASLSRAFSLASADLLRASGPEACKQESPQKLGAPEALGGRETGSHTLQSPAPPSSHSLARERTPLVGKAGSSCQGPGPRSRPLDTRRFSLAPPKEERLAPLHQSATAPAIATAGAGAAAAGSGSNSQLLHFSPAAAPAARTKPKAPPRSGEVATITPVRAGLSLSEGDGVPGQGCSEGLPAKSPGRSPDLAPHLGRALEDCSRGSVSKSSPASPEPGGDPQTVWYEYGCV

Tests used:
Gαi3-FLAG (rat) [1] = target: Gαi3-FLAG (rat) (UniProt P08753); experiment: co-IP; lysates of HEK293 cells expressing Gαi3-FLAG; anti-FLAG mAb or control IgG and protein G beads; immunoblot for endogenous Daple
GST-Gαi3 (rat) [2] = target: GST-Gαi3 (rat) (UniProt P08753); experiment: pull-down; GST-Gαi3 preloaded with GDP (inactive) on glutathione beads; lysates (~250 µg) of Cos7 cells expressing myc-Daple constructs; 4 hr at 4°C; immunoblot for myc and Gβ; only the target purified
Gαi3-FLAG (rat) [3] = target: Gαi3-FLAG (rat) (UniProt P08753); experiment: co-IP; lysates of Cos7 cells expressing Gαi3-FLAG and myc-Daple WT or FA; anti-FLAG mAb and protein G beads; immunoblot for myc
GST-Gαi3 (rat) [4] = target: GST-Gαi3 (rat) (UniProt P08753); experiment: condition: only GST-Gαi3 loaded with GDP + AlF4- (active); pull-down; as a5, but GST-Gαi3 preloaded with GDP + AlF4- (active); only the target purified
GST-FZD1-CT (human) = GST-FZD1-CT (human) (UniProt Q9UP38); experiment: pull-down; GST-tagged FZDR cytoplasmic tails immobilised on glutathione beads; lysates of Cos7 cells expressing myc-Daple constructs and/or Dvl1; immunoblot; only the target purified
GST-FZD2-CT (mouse) = GST-FZD2-CT (mouse) (UniProt Q9JIP6); experiment: as above

binding (Gαi3-FLAG (rat) [1])	binding (GST-Gαi3 (rat) [2])	binding (Gαi3-FLAG (rat) [3])	binding (GST-Gαi3 (rat) [4])	binding (GST-FZD1-CT (human))	binding (GST-FZD2-CT (mouse))	Substance
binds						Daple (full-length endogenous) (from UniProt Q9P219-1 1-2028)
	no binding					myc-Daple full-length F1675A (FA) (from UniProt Q9P219-1 1-2028)
	binds	binds	no binding	binds weakly	binds weakly	myc-Daple WT (full-length) (from UniProt Q9P219-1 1-2028)
